Data: the supplement of paper PMC3334620
In all, about 33,000 sequences were measured (“E-score (-0.5 to 0.5)”: median about -0.012, highest 2% from about 0.29 on). The list shows a part of the results.

target: T1, Ybr033w (UniProt P38073); experiment: PBM E-score (8-mer binding enrichment) (E-score (-0.5 to 0.5)); higher = stronger / more preferred TF binding; most listed sequences are background and not binding sites; settings: protein concentration: 200 nM; construct: GST-full length
T1 sequence: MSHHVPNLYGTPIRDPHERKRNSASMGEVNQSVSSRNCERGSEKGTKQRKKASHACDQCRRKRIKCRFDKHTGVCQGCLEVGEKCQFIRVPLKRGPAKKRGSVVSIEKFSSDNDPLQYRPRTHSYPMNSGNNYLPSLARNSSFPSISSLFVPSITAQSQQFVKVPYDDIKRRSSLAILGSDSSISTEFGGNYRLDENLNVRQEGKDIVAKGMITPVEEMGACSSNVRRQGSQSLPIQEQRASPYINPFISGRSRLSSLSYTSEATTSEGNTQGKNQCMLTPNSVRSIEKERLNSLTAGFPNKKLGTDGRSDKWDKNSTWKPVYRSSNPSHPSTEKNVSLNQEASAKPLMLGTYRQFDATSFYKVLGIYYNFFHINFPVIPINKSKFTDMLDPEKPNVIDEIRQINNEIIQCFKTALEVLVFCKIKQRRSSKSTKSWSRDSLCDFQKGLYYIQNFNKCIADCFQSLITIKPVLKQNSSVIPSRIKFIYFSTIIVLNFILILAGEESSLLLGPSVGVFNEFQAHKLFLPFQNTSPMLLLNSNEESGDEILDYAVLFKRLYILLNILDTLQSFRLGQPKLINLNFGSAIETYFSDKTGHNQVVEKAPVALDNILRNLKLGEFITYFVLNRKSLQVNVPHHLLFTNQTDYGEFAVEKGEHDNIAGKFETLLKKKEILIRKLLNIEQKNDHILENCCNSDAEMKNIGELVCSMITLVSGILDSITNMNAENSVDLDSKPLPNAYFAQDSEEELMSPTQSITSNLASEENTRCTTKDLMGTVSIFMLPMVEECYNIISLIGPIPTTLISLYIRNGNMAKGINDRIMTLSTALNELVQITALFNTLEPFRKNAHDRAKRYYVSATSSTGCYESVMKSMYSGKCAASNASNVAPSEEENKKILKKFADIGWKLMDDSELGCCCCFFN
Summary of the method: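 Yeast transcription factors, full-length or as DNA-binding domains, were expressed with a GST tag using PURExpress in vitro transcription/translation. At about 100-200 nM they were applied to universal all-10-mer Agilent arrays, double-stranded by primer extension on fresh or once-stripped slides. Fluorescent anti-GST detected bound protein, and masliner normalised the scans. E-scores for ungapped eight-base words, pooled with reverse complements, came from the Universal PBM Analysis Suite.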

Row | Sequence | PBM E-score
1 | CCCAAAGA | -0.027
2 | AGAATGTC | -0.131
3 | TACGGACA | -0.00729
4 | ATCTTGTA | 0.0421
5 | ACACAATA | 0.251
6 | TACACGCA | -0.00703
7 | TAAGCCAA | 0.148
8 | GACAGTGA | 0.034
9 | GAACCACA | 0.0884
10 | GAGAACAC | 0.00573
11 | CGCCATAA | -0.0388
12 | TCGAAGCA | -0.184
13 | ATAAGTCC | 0.066
14 | ACCCAGAT | -0.105
15 | CGGACGTC | -0.0543
16 | GACGTGAC | -0.103
17 | ATGGCATC | 0.0234
18 | GGAGCGAA | -0.122
19 | ATCTATTC | 0.132
20 | GTATTTGA | 0.127
21 | TATTAAGA | 0.168
22 | AGATTTCA | 0.156

Row | Sequence | PBM E-score
23 | ACGGGATG | -0.221
24 | CGTCGCAC | -0.104
25 | CCTGTTCC | 0.0589
26 | GGGCAGTA | -0.109
27 | GGGTCACA | -0.245
28 | CGGTACGC | -0.13
29 | ATAGAAAT | 0.164
30 | CGACTATC | -0.0303
31 | ATCCCCAA | 0.0446
32 | TAGGGCGA | 0.0505
33 | CAAGTCTA | 0.0126
34 | CCTGGTCC | -0.133
35 | TAATGAGA | 0.229
36 | CCCTCCGA | -0.196
37 | AGTGATTA | 0.108
38 | AATCTGAC | 0.0589
39 | CATACTTA | 0.0855
40 | GGCTCTCA | -0.309
41 | AAGATCAG | 0.0479
42 | ACTCGGTA | -0.0263
43 | TAGCCCTA | -0.112
44 | CCTATTCG | -0.149

Row | Sequence | PBM E-score
45 | CGCGCAGC | -0.204
46 | CTCTGATA | 0.214
47 | AAAGTCGA | -0.0286
48 | GAGCACGC | -0.245
49 | ACCGTCTA | -0.106
50 | AATCATAC | 0.215
51 | AACACGCT | 0.0343
52 | CTGTGTCC | -0.0543
53 | CTTTTCTC | 0.0596
54 | ACTCTAGC | -0.069
55 | ATATCAAC | 0.149
56 | GCTCACAA | 0.0799
57 | ATATATAT | 0.141
58 | CTAGGCTC | -0.293
59 | ACCGCGTG | -0.0934
60 | CGTCCAAC | -0.0161
61 | GTCCCGAA | -0.0465
62 | AAGACACA | 0.00061
63 | ACCGGGTA | 0.00699
64 | CAGCATGA | -0.0259
65 | AAATATCT | 0.295
66 | ACGTCTCT | -0.135

Row | Sequence | PBM E-score
67 | CCATCATC | -0.0153
68 | AACGCTAG | -0.088
69 | CGATGTCA | -0.0145
70 | TCCAGGCA | -0.0372
71 | AGAACGAG | 0.0266
72 | CTGGCGCA | -0.311
73 | GCTTTGCA | -0.164
74 | AACCTTTA | 0.046
75 | CCGTCCTC | -0.208
76 | AAACCGGA | 0.217
77 | CTTACGGC | -0.197
78 | AACACCCC | -0.187
79 | CTTTTAGA | 0.0355
80 | GTGCCCAC | -0.238
81 | CCAAGTAA | 0.137
82 | CCCCCGCC | -0.288
83 | GACACAGC | -0.0695
84 | GACGAGTA | 0.0188
85 | AGAGTTAT | 0.0933
86 | AGGGTGGA | -0.234
